This is one part of the list. The main result of the screen is listed elsewhere. These columns were measured beside it and carry no call.

The experiment can be described thus: exo-erythrocytic parasite development inhibition – imaging, Malaria Box, P. yoelii, HepG2-A16-CD81EGFP, dose response (AID 602156).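 Also: infected cells exposed to compound for 48 hours before fixation.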 Conditions: P. yoelii liver stage in HepG2-A16-CD81EGFP, measured here: liver parasite size at 10 uM.
`CCCCCc1ccc(OCCCC[n+]2cccc(C)c2)c(CCCCC)c1` yielded a parasite size of 23.5 um.
Molecule `Cc1nc2cc(-c3ccc(I)cc3)[nH]n2c(=O)c1C` showed a parasite size of 35.3 um.
As for `CCN1CCN(c2c(C(=O)c3ccccc3)cnc3cc(OC)c(OC)cc23)CC1`, the figure is 89.8 um; as for `c1ccc(OCCOc2ccc(Nc3c4ccccc4nc4ccccc34)cc2)cc1`, 41.3 um.
As to `CC(=O)N(C1=C(N2CCOCC2)C(=O)c2ccccc2C1=O)c1cccc(Cl)c1`, the parasite size was determined as 43.7 um.
The molecule `CC1CC(N(C(=O)c2ccc(Cl)cc2Cl)c2ccccc2)c2ccccc2N1C(=O)c1ccc(Cl)cc1` (centres undefined) came in with a parasite size of 111 um.
For the molecule `OC(CNC1CCCCC1)Cn1c2ccccc2c2ccccc21` (centres undefined), the parasite size came to 143 um.
The figure for `c1ccc(-c2cc(N3CCN(c4ccccn4)CC3)nc(-c3ccccn3)n2)nc1` is 24.3 um; for `c1ccc(OCCOc2ccc(Nc3ccnc4cc5ccccc5cc34)cc2)cc1` it is 18.1 um.
`Cc1cccc2c1[nH]c1nc(SCC(C)C)nnc12` returned a parasite size of 36.4 um.
As for `Fc1ccc(Nc2nc(NCc3ccccc3)c3ccccc3n2)cc1`, the figure is 155 um; as for `CCOc1ccc2[nH]c(=O)c(CN(CCN(CC)CC)C(=S)NCCCN(CC)CC)cc2c1`, 121 um; as for `CCCc1ccc(C(=O)NC(=O)c2ccccc2O)cc1`, 23.2 um.
The figure for `CCOC(=O)c1c[nH]c2ccc(C(C)C)cc2c1=O` is 31.4 um; for `Fc1ccccc1Nc1nc(NCc2ccccc2)c2ccccc2n1` it is 37.6 um; for `O=C(c1cnsn1)N1CCCC(COc2cccc(CN3CCC(Cc4ccccc4)CC3)c2)C1` (centres undefined) it is 69.4 um.
As for `c1ccc(CNc2nc(Nc3ccccc3)nc3ccccc23)cc1`, the figure is 29.9 um; as for `CC[C@H]1CN2CCc3cc(OC)c(OC)cc3[C@@H]2C[C@@H]1C[C@H]1NCCc2cc(OC)c(OC)cc21`, 26.5 um.
Regarding `Oc1cccc(Nc2nc(NCC3CCCO3)c3ccccc3n2)c1` (centres undefined), the parasite size was found to be 74.3 um.
As for `CCn1c(/C=C/C=C2\N(C)c3ccccc3C2(C)C)[n+](Cc2ccccc2)c2ccccc21`, the parasite size is 14 um.
In the case of `COc1cccc(C(=O)NC(c2ccccc2OC)c2cc(Cl)c3cccnc3c2O)c1` (centres undefined), the parasite size came out at 20.2 um.
Consider `O=c1c2ccccc2[nH]c2ccc(F)cc12`, for which the parasite size came to 29.6 um.
Turning to `CCN(CC)CCCC(C)Nc1c2ccc(Cl)cc2nc2ccc(OC)cc12` (centres undefined), the parasite size came out at 26.3 um.
The molecule `CC(=O)N(C)C1=C(N2CCOCC2)C(=O)c2ccccc2C1=O` came in with a parasite size of 38.7 um.
`O=C(Nc1ccc(C(F)(F)F)cc1)c1ccc(NCCCN2CCCCCC2)c([N+](=O)[O-])c1` gave a parasite size of 74.2 um.
Molecule `COc1cccc(N2C(N)=NC(N)=NC2(C)C)c1` showed a parasite size of 38.1 um.
Consider `O=C(c1cccs1)N1CCN(c2ccc([N+](=O)[O-])c(NC3CC3)c2)CC1`, for which the parasite size was 83.6 um.
The molecule `Cc1ccc(-c2cc3nc4c(c(=O)n3[nH]2)CCCC4)cc1` had a parasite size of 26.4 um.
The figure for `CCOC(=O)c1cnc2ccc(OC)cc2c1NCc1cccs1` is 31.6 um.

The values above are taken from PubChem BioAssay AID602156 (GNF / Scripps Winzeler lab, 2011).
